Results taken from the supplement of paper PMC12217912.
The other results are listed elsewhere or left out. Sequences were assembled here from the parent chain. Inactive controls read about 0.05.

B1: TEV protease; numbered along this chain (parent)
chain: MGESLFKGPRDYNPISSSICHLTNESDGHTTSLYGIGFGPFIITNKHLFRRNNGTLVVQSLHGVFKVKDTTTLQQHLVDGRDMIIIRMPKDFPPFPQKLKFREPQREERICLVTTNFQTKSMSSMVSDTSCTFPSGDGIFWKHWIQTKDGQCGSPLVSTRDGFIVGIHSASNFTNTNNYFTSVPKNFMELLTNQEAQQWVSGWRLNADSVLWGGHKVFMVKPEEPFQPVKEATQL

Variants of: B1
Experiment: raw area under fraction-flipped curve 0-4 h after induction (AUC4h, not background-subtracted), DNA-recorder readout of cleavage of the substrate (dimensionless); higher = more cleavage of the substrate by the protease variant
Conditions: temperature: 34 °C; time window: 0-4 h after rhamnose induction
Experimental: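 In vivo DNA recorder in E. coli TOP10(DE3) ΔrhaA at 34 °C. Each TEVp single-site mutant (parent TEVp 0) is paired with a single-site variant of the 7-mer TEVs (canonical ENLYFQ|S). The substrate sits between flexible linkers in a Bxb1-sfGFP-TEVs-SsrA fusion, so cleavage stabilises Bxb1 and speeds flipping of a recombination array, read by NGS. The value is the raw area under the fraction-flipped curve over 0-4 h after rhamnose induction (AUC4h), with ≥20 reads per time point. It is not background-subtracted; inactive controls average about 0.047.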
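Note: Bxb1 expression induced with 0.2% (w/v) L-rhamnose at OD600 near 0.5, cultures sampled hourly, flipped fraction per protease–substrate barcode pair counted by paired-end Illumina sequencing.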

Variant	area with substrate EALYFQS	area with substrate ECLYFQS	area with substrate EELYFQS	area with substrate EFLYFQS	area with substrate EGLYFQS	area with substrate EILYFQS	area with substrate EKLYFQS	area with substrate EMLYFQS	area with substrate EQLYFQS	area with substrate ERLYFQS	area with substrate ESLYFQS	area with substrate ETLYFQS	area with substrate EVLYFQS	area with substrate EWLYFQS	area with substrate EYLYFQS	area with substrate EDLYFQS	area with substrate EHLYFQS	area with substrate ELLYFQS	area with substrate EPLYFQS
MGESLFKGPRDYNPISSSICHLTNESDGHTTSLYGIGFGPFIITNKHLFRRNNGTLVVQSLHGVFKVKDTTTLQQHLVDGRDMIIIRMPKDFPPFPQKLKFREPQREERICLVTTNFQTKSMSSMVSQTSCTFPSGDGIFWKHWIQTKDGQCGSPLVSTRDGFIVGIHSASNFTNTNNYFTSVPKNFMELLTNQEAQQWVSGWRLNADSVLWGGHKVFMVKPEEPFQPVKEATQL [D128Q]	0.123	0.144	0.132	0.123	0.121	0.106	0.127	0.157	0.168	0.133	0.127	0.142	0.0677	0.11	0.142				
MGESLFKGPRDYNPISSSICHLTNESDGHTTSLYGIGFGPDIITNKHLFRRNNGTLVVQSLHGVFKVKDTTTLQQHLVDGRDMIIIRMPKDFPPFPQKLKFREPQREERICLVTTNFQTKSMSSMVSDTSCTFPSGDGIFWKHWIQTKDGQCGSPLVSTRDGFIVGIHSASNFTNTNNYFTSVPKNFMELLTNQEAQQWVSGWRLNADSVLWGGHKVFMVKPEEPFQPVKEATQL [F41D]	0.094	0.0829	0.119	0.0625	0.0719	0.0729	0.0612	0.0916	0.111	0.111	0.0848	0.0561	0.0761		0.0644	0.103	0.0982	0.074	
MGESLFKGPRDYNPISSSICHLTNESDGHTTSLYGIGFGPFIITNKHLFRRNNGTLVVQSLHGVFKVKDTTTLQQHLVDGRDMIIIRPPKDFPPFPQKLKFREPQREERICLVTTNFQTKSMSSMVSDTSCTFPSGDGIFWKHWIQTKDGQCGSPLVSTRDGFIVGIHSASNFTNTNNYFTSVPKNFMELLTNQEAQQWVSGWRLNADSVLWGGHKVFMVKPEEPFQPVKEATQL [M88P]	0.0936	0.102	0.0982		0.0575		0.0855		0.0859	0.0811	0.0728		0.0853	0.0759	0.0952	0.0872	0.0919		0.102
MGESLFKGPRDYNPISSSICHLTNESDGHTTSLYGIGFGPFIITNKHLFRRNNGTLVVQSLHGVFKVKDTTTLQQHLVDGRDMIIIRMPKDFPPFPQKLKFREPQREERICLVTTNFQTKSMSSMVSDTSCTFPSGDGIFWKHWIQTKDGQCVSPLVSTRDGFIVGIHSASNFTNTNNYFTSVPKNFMELLTNQEAQQWVSGWRLNADSVLWGGHKVFMVKPEEPFQPVKEATQL [G153V]	0.049	0.044	0.0498			0.0558			0.0495	0.0381	0.104		0.0379		0.0559		0.0523		
MGESLFKGPRDYNPISSSICHLTNESDGHTTSLYGIGFGPFIITNKHLFRRNNGTLVVQSLHGVFKVKDTTTLQQHLVDGRDMIIIRMPKDFPPFPQKLKFREPQREERICLVTTNFQTKSMSSMVSDTSCTFPSGDGIFWKHWIQTKDGQCGSPLVSTRDGFIVGIHSASNFTNTNNYFTSVPKNFMELLTNQEAQQWVSGWRLNADSVLWGSHKVFMVKPEEPFQPVKEATQL [G214S]	0.13		0.104			0.0681			0.16		0.0967		0.0885			0.11			
MGESLFKGPRDYNPISSSICHLTNESDGHTTSLYGIGFGPFIITNKHLFRRNNGTLVVQSLHGVFKVKDTTTLQQHLVDERDMIIIRMPKDFPPFPQKLKFREPQREERICLVTTNFQTKSMSSMVSDTSCTFPSGDGIFWKHWIQTKDGQCGSPLVSTRDGFIVGIHSASNFTNTNNYFTSVPKNFMELLTNQEAQQWVSGWRLNADSVLWGGHKVFMVKPEEPFQPVKEATQL [G80E]	0.149	0.112	0.139			0.105	0.119	0.176	0.17						0.124	0.163	0.0848	0.0941	0.183
MGESLFKGPRDYNPISSSICHLTNESDGHTTSLYGIGFGPFIITNKHLFRRNNGTLVVQSLHGVFKVKDTTTLQQHLVDGRDMIIIRMPKDFPPFPQKLKFREPQREERICLVTTNFQTKSMSSMVSDTSCTFPSGDGIFWKHWIQTKDGQCGSPLVSTRDGFIVGIHSASNFTNTNNYFTSVPKNFMELLTNQEAQQWVSGWRLNADSYLWGGHKVFMVKPEEPFQPVKEATQL [V210Y]	0.118		0.0963			0.0768			0.102	0.0784	0.0954	0.0896	0.0798	0.0904	0.0955	0.137	0.0968	0.0791	0.0981
MGESLFKGPRDYNPISSSICHLTNESDGHTTSLYGIGFGPFIITNKHLFRRNNGTLVVQSLHGDFKVKDTTTLQQHLVDGRDMIIIRMPKDFPPFPQKLKFREPQREERICLVTTNFQTKSMSSMVSDTSCTFPSGDGIFWKHWIQTKDGQCGSPLVSTRDGFIVGIHSASNFTNTNNYFTSVPKNFMELLTNQEAQQWVSGWRLNADSVLWGGHKVFMVKPEEPFQPVKEATQL [V64D]	0.104	0.107	0.113			0.0874	0.111	0.0936	0.201	0.109	0.101		0.108	0.126	0.0856				
